Results taken from patent publication US20250018038A1 (UNIVERSITY OF CHICAGO, published 2025).
Where a chain is given by its changes, count along the chain named. Results are given in words; binding and its absence hold for the method and conditions named. Some entries that bind do so weakly or less than the wild type.

Protein sequences, listed by entry. Tags and fused reporters are not part of them. Residues count along the entry.
UniProt O15392, residues 1-140: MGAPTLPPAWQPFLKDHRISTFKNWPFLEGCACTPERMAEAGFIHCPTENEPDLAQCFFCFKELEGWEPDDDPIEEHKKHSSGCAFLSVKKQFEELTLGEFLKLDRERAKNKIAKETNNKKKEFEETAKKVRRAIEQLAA

B1: SUR-FL-47 (Fab, V domains shown)
VH: EVQLVESGGGLVQPGGSLRLSCAASGFNVSYSSIHWVRQAPGKGLEWVASIYSYYGYTSYADSVKGRFTISADTSKNTAYLQMNSLRAEDTAVYYCARWPHYWGQGVSSMDYWGQGTLVTVSS
VL: DIQMTQSPSSLSASVGDRVTITCRASQSVSSAVAWYQQKPGKAPKLLIYSASSLYSGVPSRFSGSRSGTDFTLTISSLQPEDFATYYCQQSYYFPVTFGQGTKVEIKR
notes: also called SUR-FL-47 Fab
B2: SUR-FL-31 (Fab, V domains shown)
VH: EVQLVESGGGLVQPGGSLRLSCAASGFNFSSSSIHWVRQAPGKGLEWVASISSYSGYTYYADSVKGRFTISADTSKNTAYLQMNSLRAEDTAVYYCARGKQKSYGQWYFYYWAIDYWGQGTLVTVSS
VL: B1 VL with Y92S, Y93S, F94S, P95L, V96I
notes: also called SUR-FL-31 Fab
B3: SUR-N-28 (Fab, V domains shown)
VH: EVQLVESGGGLVQPGGSLRLSCAASGFNFSSSYIHWVRQAPGKGLEWVASIYSSYGYTSYADSVKGRFTISADTSKNTAYLQMNSLRAEDTAVYYCARSYYYQYSGGWRGYYHALDYWGQGTLVTVSS
VL: B1 VL with Y92S, Y93S, F94S, P95L, V96I
notes: also called SUR-N-28 Fab
B4: SUR-FL-24 (Fab, V domains shown)
VH: EVQLVESGGGLVQPGGSLRLSCAASGFNFYSSSIHWVRQAPGKGLEWVASIYPYYSSTSYADSVKGRFTISADTSKNTAYLQMNSLRAEDTAVYYCARWYHYYSVQQYGLDYWGQGTLVTVSS
VL: B1 VL with Y92T, Y93S, V96I
notes: also called SUR-FL-24 Fab
B5: SUR-FL-46 (Fab, V domains shown)
VH: EVQLVESGGGLVQPGGSLRLSCAASGFNFYSSYIHWVRQAPGKGLEWVAYISSYSGYTSYADSVKGRFTISADTSKNTAYLQMNSLRAEDTAVYYCARYSRVGMYPYGGLDYWGQGTLVTVSS
VL: DIQMTQSPSSLSASVGDRVTITCRASQSVSSAVAWYQQKPGKAPKLLIYSASSLYSGVPSRFSGSRSGTDFTLTISSLQPEDFATYYCQQSYYYSSLFTFGQGTKVEIKR
B6: SUR-FL-22 (Fab, V domains shown)
VH: EVQLVESGGGLVQPGGSLRLSCAASGFNFYSSYIHWVRQAPGKGLEWVASIYSYSSSTSYADSVKGRFTISADTSKNTAYLQMNSLRAEDTAVYYCARAGWYWYYGIQFAFDYWGQGTLVTVSS
VL: DIQMTQSPSSLSASVGDRVTITCRASQSVSSAVAWYQQKPGKAPKLLIYSASSLYSGVPSRFSGSRSGTDFTLTISSLQPEDFATYYCQQQRYGSLITFGQGTKVEIKR
notes: also called SUR-FL-22 Fab
B7: SUR-FL-43 (Fab, V domains shown)
VH: EVQLVESGGGLVQPGGSLRLSCAASGFNISYSSIHWVRQAPGKGLEWVASISSSSGYTSYADSVKGRFTISADTSKNTAYLQMNSLRAEDTAVYYCARKWWYYYGRDLALDYWGQGTLVTVSS
VL: B6 VL with R92G, G94R, S95G
B8: SUR-FL-42 (Fab, V domains shown)
VH: EVQLVESGGGLVQPGGSLRLSCAASGFNFSYYYIHWVRQAPGKGLEWVASISPSYSSTSYADSVKGRFTISADTSKNTAYLQMNSLRAEDTAVYYCARFAPGFGWWYMGMDYWGQGTLVTVSS
VL: B1 VL with S91Y, Y92I, Y93P, F94S, P95L, V96I
B9: SUR-FL-25 (Fab, V domains shown)
VH: EVQLVESGGGLVQPGGSLRLSCAASGFNVYSSSIHWVRQAPGKGLEWVASIYPYYSYTSYADSVKGRFTISADTSKNTAYLQMNSLRAEDTAVYYCARWKKSRSGGMWGMDYWGQGTLVTVSS
VL: B1 VL with S91Y, Y92S, Y93S, V96I
notes: also called SUR-FL-25 Fab
B10: SUR-N-36 Fab (Fab, V domains shown)
VH: EVQLVESGGGLVQPGGSLRLSCAASGFNVSYSSIHWVRQAPGKGLEWVASIYPYYGYTSYADSVKGRFTISADTSKNTAYLQMNSLRAEDTAVYYCAREEYSTVQYWYYYWYPGMDYWGQGTLVTVSS
VL: B1 VL with S91Y, Y92M, F94S, V96I
B11: SUR-N-09 (Fab, V domains shown)
VH: EVQLVESGGGLVQPGGSLRLSCAASGFNFYYSSIHWVRQAPGKGLEWVASISPYSGYTSYADSVKGRFTISADTSKNTAYLQMNSLRAEDTAVYYCARYMYYGWALDYWGQGTLVTVSS
VL: B6 VL with Q91G, R92Q, Y93W, G94W, S95G
notes: also called SUR-N-09 Fab
B12: SUR-FL-52 (Fab, V domains shown)
VH: EVQLVESGGGLVQPGGSLRLSCAASGFNFSSSSIHWVRQAPGKGLEWVASIYPYSGSTYYADSVKGRFTISADTSKNTAYLQMNSLRAEDTAVYYCARWDFGYYYWYSAIDYWGQGTLVTVSS
VL: B1 VL with S91Y, Y92W, F94T, P95L, V96I
notes: also called SUR-FL-52 Fab
B13: SUR-N-53 (Fab, V domains shown)
VH: EVQLVESGGGLVQPGGSLRLSCAASGFNVSSSYIHWVRQAPGKGLEWVASIYSYYGSTSYADSVKGRFTISADTSKNTAYLQMNSLRAEDTAVYYCARSFTEKWAYSWAIDYWGQGTLVTVSS
VL: B1 VL with S91Y, Y92A, Y93W, F94S, P95L, V96F
notes: also called SUR-N-53 Fab
B14: SUR-N-37 (Fab, V domains shown)
VH: EVQLVESGGGLVQPGGSLRLSCAASGFNVSYSSIHWVRQAPGKGLEWVASISSYYGSTSYADSVKGRFTISADTSKNTAYLQMNSLRAEDTAVYYCARSTYYSWYPYYYAMWHQHGMDYWGQGTLVTVSS
VL: B6 VL with Q91S, R92P, Y93M, G94Y
notes: also called SUR-N-37 Fab

The binders below were run on T1, INC-N (assay: single point protein ELISA, 50 nM immobilised target).
T1 sequence (chain, by the resolver, Biotinylated Avi tag, held on neutravidin; not in the letters): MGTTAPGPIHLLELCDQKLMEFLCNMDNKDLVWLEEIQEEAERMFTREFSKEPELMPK

| binding | Binder |
| --- | --- |
| no binding (tested: 200 nM) | B1 |
| no binding (tested: 200 nM) | B2 |
| no binding (tested: 200 nM) | B3 |
| no binding (tested: 200 nM) | B4 |
| no binding (tested: 200 nM) | B5 |

Molecular target: T2, Bor-C (Biotinylated Avi tag, held on neutravidin; not in the letters)
T2 construct: also called Bor C: 207-280; Borealin C-terminal domain; not shown: Avi tag, and any purification tag or linker
T2 chain: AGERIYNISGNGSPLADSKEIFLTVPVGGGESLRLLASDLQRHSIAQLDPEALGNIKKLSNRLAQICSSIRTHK
Assay: as above
Method: (§1) To rapidly reconfirm the binding and specificity of the obtained Fabs after reformatting into the expression vectors single-point Fab ELISA was performed (FIG. 2-3). Briefly, 50 nM Avi-tagged targets were immobilized on the prepared NAV-coated and blocked with 0.5% BSA in PBS 96-well ELISA plates. The target coated plates were washed with appropriate buffer (TBST or PBST) and were incubated with 200 nM Fab for 20 minutes and then washed. The washed plates were incubated with protein L conjugated with HRP (1:5000 diluted in TBST) for 30 minutes. Plates were washed and the reaction was developed using the TMB chromogenic substrate (Thermofisher) and subsequently quenched with 1M HCl. Absorbance was read at 450 nm on Epoch plate reader.

| binding | Binder |
| --- | --- |
| no binding (tested: 200 nM) | B6 |
| no binding (tested: 200 nM) | B7 |
| no binding (tested: 200 nM) | B1 |
| no binding (tested: 200 nM) | B8 |
| no binding (tested: 200 nM) | B9 |
| no binding (tested: 200 nM) | B2 |
| no binding (tested: 200 nM) | B3 |
| no binding (tested: 200 nM) | B10 |
| no binding (tested: 200 nM) | B4 |
| no binding (tested: 200 nM) | B5 |

Molecular target: T3, Bor-N (Biotinylated Avi tag, held on neutravidin; not in the letters)
T3 construct: also called Bor N: 20-88; Borealin N-terminal domain; not shown: Avi tag, and any purification tag or linker
T3 chain: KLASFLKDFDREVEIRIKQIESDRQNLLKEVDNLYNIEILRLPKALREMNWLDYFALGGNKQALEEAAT
Assay: as above
Method: as §1

| binding | Binder |
| --- | --- |
| no binding (tested: 200 nM) | B6 |
| no binding (tested: 200 nM) | B11 |
| no binding (tested: 200 nM) | B7 |
| no binding (tested: 200 nM) | B1 |
| no binding (tested: 200 nM) | B8 |
| no binding (tested: 200 nM) | B9 |
| no binding (tested: 200 nM) | B12 |
| no binding (tested: 200 nM) | B13 |
| no binding (tested: 200 nM) | B10 |
| no binding (tested: 200 nM) | B4 |
| no binding (tested: 200 nM) | B5 |

What follows are binders tested against Survivin (purified recombinant Survivin protein) (human) (UniProt O15392) (assay: single point protein ELISA: 50 nM Avi-tagged target on neutravidin plate, 200 nM Fab, protein L-HRP).

| Binder | binding |
| --- | --- |
| B6 | binds |
| B11 | binds |
| B14 | binds |
| B1 | binds |
| B9 | binds |
| B2 | binds |
| B3 | binds |
| B12 | binds |
| B13 | binds |
| B10 | binds |
| B4 | binds |
| B5 | binds |
